Our source for the cell viability values is the supplement of paper PMC9588766.

Where a name gives a salt, the structure may show the parent alone. ± gives the standard deviation of the averaged measurements. In all, about 2,000 compounds were measured (“cell viability relative to DMSO control (compound alone)”: median about 0.98, lowest 2% from about 0.23 on). Some of the results follow.

For this test, the system named is PDC-DUC18828. Briefly: cell viability relative to DMSO control (compound alone) (fraction); PDC-DUC18828 is a patient-derived cholangiocarcinoma cell line; higher = less growth inhibition. Particulars: 1 µM; 72 h. How it is done:
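Selleck Bioactive library screen in the patient-derived FGFR2-G3BP2 fusion-positive ICC cell line PDC-DUC18828 (500 cells/well). Each compound was tested at 1 uM alone, in triplicate, for 72 h. Viability was read by CellTiter-Glo and normalised to plate DMSO controls.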
`CCOc1ccc2ccccc2c1C(=O)N[C@@H]1C(=O)N2[C@@H]1SC(C)(C)[C@@H]2C(=O)O` [Nafcillin Sodium]: the cell viability was 0.999 ± 0.06. For `CCN(CC)CCNC(=O)c1cc(Cl)c(N)cc1OC` [MetoclopraMide HCl] the value was 0.94 ± 0.059; for `CC1=NN(c2ccccc2)C(=O)C1` [Edaravone], 0.939 ± 0.034. `CO[C@H]1/C=C\C=C(/C)C(=O)NC2=CC(=O)C(NCCN(C)C)=C(C[C@@H](C)C[C@H](OC)[C@H](O)[C@@H](C)/C=C(\C)[C@@H]1OC(N)=O)C2=O` [17-DMAG (Alvespimycin) HCl] displayed a cell viability of 0.362 ± 0.028.

In turn, `CCC[C@@H]1C[C@@H](C(=O)N[C@@H]([C@H]2O[C@H](SC)[C@H](O)[C@@H](O)[C@H]2O)[C@H](C)Cl)N(C)C1` [Clindamycin HCl] gave a cell viability of 1 ± 0.099. The figure for `CCC[C@@H]1C[C@@H](C(=O)N[C@@H]([C@H]2O[C@H](SC)[C@H](O)[C@@H](O)[C@H]2O)[C@H](C)Cl)N(C)C1` [Clindamycin] is 0.9709 ± 0.0049; for `O=C(N[C@H](CO)[C@H](O)c1ccc([N+](=O)[O-])cc1)C(Cl)Cl` [Chloramphenicol] it is 0.975 ± 0.014. The figure for `O=C(O)CCNC(=O)c1ccccc1` [Betamipron] is 0.966 ± 0.015. Regarding `C=C1/C(=C\C=C2/CCC[C@]3(C)[C@@H]([C@H](C)CCCC(C)C)CC[C@@H]23)C[C@@H](O)C[C@@H]1O` [Alfacalcidol], the cell viability was 1.01 ± 0.015. The figure for `CCN(CC)CCOC(=O)c1ccc(N)cc1Cl` [Chloroprocaine HCl] is 1.1 ± 0.038; for `Cc1c(-c2ccccc2)oc2c(C(=O)OCCN3CCCCC3)cccc2c1=O` [Flavoxate HCl] it is 0.9893 ± 0.0031. For `COc1ccc(O)cc1` [Mequinol] the value was 1.11 ± 0.048; for `CCCCCCOC(=O)NC(=N)c1ccc(NCc2nc3cc(C(=O)N(CCC(=O)OCC)c4ccccn4)ccc3n2C)cc1` [Dabigatran Etexilate], 1 ± 0.049. For `CN[C@@H]1[C@H](O)[C@H](NC)[C@H]2O[C@@]3(O)C(=O)C[C@@H](C)O[C@H]3O[C@@H]2[C@H]1O` [Spectinomycin HCl] the value was 0.981 ± 0.06; for `NS(=O)(=O)c1cc2c(cc1Cl)NC(C(Cl)Cl)NS2(=O)=O` (stereo not given) [Trichlormethiazide], 0.955 ± 0.058. Turning to `NC(=O)c1cnc(N[C@@H]2CCCC[C@@H]2N)nc1Nc1cccc(-n2nccn2)c1`, the cell viability worked out at 0.951 ± 0.027.

As for `C#Cc1cccc(Nc2ncnc3cc(OCCOC)c(OCCOC)cc23)c1` [Erlotinib], the cell viability turned out to be 0.882 ± 0.051.

Molecule `C#Cc1cccc(Nc2ncnc3cc(OCCOC)c(OCCOC)cc23)c1` [Erlotinib HCl (OSI-744)] returned a cell viability of 0.9322 ± 0.0069.

As to `COc1ccc(Cn2ccc3ccc(C(=O)NO)cc32)cc1`, the cell viability is 0.944 ± 0.044.

As to `CC#CC(=O)N1CC[C@@H](n2c(=O)n(-c3ccc(Oc4ccccc4)cc3)c3c(N)ncnc32)C1`, the cell viability amounted to 0.983 ± 0.058.

The molecule `Cc1onc(-c2ccccc2Cl)c1C(=O)N[C@@H]1C(=O)N2[C@@H]1SC(C)(C)[C@@H]2C(=O)O` [Cloxacillin Sodium] came in with a cell viability of 1 ± 0.074. For `CCc1c2c(nc3ccc(O)cc13)-c1cc3c(c(=O)n1C2)COC(=O)[C@]3(O)CC` the value was 0.118 ± 0.0061; for `Cc1nn(-c2ccccc2)c(C)c1C=NN1CCN(Cc2ccccc2)CC1`, 1.04 ± 0.071; for `CC(C)C(=O)Oc1ccc(CO)cc1[C@H](CCN(C(C)C)C(C)C)c1ccccc1` [Fesoterodine Fumarate], 1.07 ± 0.046. For `Cc1ccc(NC(=O)c2ccc(CN3CCN(C)CC3)cc2)cc1Nc1nccc(-c2cccnc2)n1` [Imatinib Mesylate (STI571)] the value was 1.05 ± 0.016; for `Cc1ccc(NC(=O)c2ccc(CN3CCN(C)CC3)cc2)cc1Nc1nccc(-c2cccnc2)n1` [Imatinib (STI571)], 1.02 ± 0.03; for `O=C(O)C(=O)O.[NH-][C@@H]1CCCC[C@H]1[NH-].[Pt+2]` [Oxaliplatin], 0.952 ± 0.041. `O=C(NCC1(c2nc(-c3ccccc3)cs2)CCOCC1)c1cccc(-c2noc(C(F)(F)F)n2)c1` returned a cell viability of 0.992 ± 0.073. Regarding `Cc1c(C(=O)NN2CCCCC2)nn(-c2ccc(Cl)cc2Cl)c1-c1ccc(Cl)cc1` [Rimonabant], the cell viability worked out at 0.959 ± 0.054.

As to `C[C@H]1c2cccc(O)c2C(=O)C2=C(O)[C@]3(O)C(=O)C(C(N)=O)=C(O)[C@@H](N(C)C)[C@@H]3[C@@H](O)[C@@H]21` [Doxycycline Hyclate], the cell viability amounted to 0.959 ± 0.058. The figure for `COc1cc2c(cc1OC)CC(=O)N(CCCN(C)C[C@H]1Cc3cc(OC)c(OC)cc31)CC2` [Ivabradine HCl] is 1.08 ± 0.031; for `COc1cc(C(=O)N2CCC(N3CCN(C)CC3)CC2)ccc1Nc1ncc2c(n1)N(C)c1ccccc1C(=O)N2C` it is 0.977 ± 0.061. In the case of `Clc1ccc(C(Cn2ccnc2)OCc2ccsc2Cl)c(Cl)c1` (stereo not given) [Tioconazole], the cell viability was found to be 1.03 ± 0.033.

`CCOC(=O)c1cnc2ccc(-c3cncc(NS(=O)(=O)c4ccccc4)c3)cn12` gave a cell viability of 0.459 ± 0.047. The figure for `C[C@@H](Nc1cc(F)cc(F)c1)c1cc(C(=O)N(C)C)cc2c(=O)cc(N3CCOCC3)oc12` is 0.783 ± 0.046; for `CC(C)(OCc1nn(Cc2ccccc2)c2ccccc12)C(=O)O` [Bindarit] it is 0.944 ± 0.041; for `CCCN1CCCC[C@H]1C(=O)Nc1c(C)cccc1C` [Ropivacaine HCl] it is 1.07 ± 0.049. `CC(NC(=O)c1ccccc1/N=C/c1c(O)ccc2ccccc12)c1ccccc1` (stereo not given) [Sirtinol] showed a cell viability of 1.09 ± 0.047.

As to `Cc1cccc(-c2[nH]c(C(C)(C)C)nc2-c2ccc3c(c2)OCO3)n1`, the cell viability amounted to 0.998 ± 0.055. The figure for `CN1CC(=O)N2[C@H](c3ccc4c(c3)OCO4)c3[nH]c4ccccc4c3C[C@@H]2C1=O` [Tadalafil] is 1.12 ± 0.021. For `CCN(C(=O)c1c(O)c2c(Cl)cccc2n(C)c1=O)c1ccccc1` [Laquinimod] the value was 0.982 ± 0.078. The figure for `Cc1c(C(=O)NN2CCCCC2)nn(-c2ccc(Cl)cc2Cl)c1-c1ccc(I)cc1` is 0.954 ± 0.02. In the case of `CCc1nc(N)nc(N)c1-c1ccc(Cl)cc1` [Pyrimethamine], the cell viability stood at 0.978 ± 0.05.

Take `CC(C)NCC(O)COc1ccc(CCOCC2CC2)cc1` (stereo not given) [Betaxolol]: the cell viability was determined as 1.01 ± 0.026. The figure for `CCOc1nc2cccc(C(=O)OCc3oc(=O)oc3C)c2n1Cc1ccc(-c2ccccc2-c2noc(=O)[nH]2)cc1` [Azilsartan Medoxomil] is 0.948 ± 0.03; for `COc1cc(OC2CCN(C)CC2)ccc1Nc1ncc2c(n1)n(C1CCCC1)c(=O)n2C` it is 1.02 ± 0.038. The figure for `C#CCN[C@@H]1CCc2ccccc21` [Rasagiline Mesylate] is 1.06 ± 0.024; for `COc1ccc(NS(=O)(=O)c2sc3ccc(Cl)cc3c2C)cc1N1CCNCC1` it is 0.991 ± 0.018; for `Nc1ccn([C@H]2CC[C@@H](CO)O2)c(=O)n1` [Zalcitabine] it is 0.963 ± 0.045. The molecule `CCc1cc(Nc2nccc(-c3c(-c4ccc(OC)c(C(=O)Nc5c(F)cccc5F)c4)nc4ccccn34)n2)c(OC)cc1N1CCC(N2CCN(S(C)(=O)=O)CC2)CC1` came in with a cell viability of 1.05 ± 0.038. Molecule `CN(C)CCOC(C)(c1ccccc1)c1ccccn1` (stereo not given) [Doxylamine Succinate] had a cell viability of 0.984 ± 0.041. The figure for `C=CCNC(N)=S` [Allylthiourea] is 1.04 ± 0.065; for `CNC(=O)c1cccc(-c2ccc3c(N4CCOC[C@@H]4C)nc(N4CCOC[C@@H]4C)nc3n2)c1` it is 0.289 ± 0.0052; for `COc1cccc(-c2cc(=O)c3ccccc3o2)c1N` it is 1.04 ± 0.038.

Turning to `CC(C)(C#N)c1cc(Cn2cncn2)cc(C(C)(C)C#N)c1` [Anastrozole], the cell viability was found to be 0.917 ± 0.043.

As to `COc1cc2nccc(Oc3ccc(NC(=O)Nc4cc(C)on4)c(Cl)c3)c2cc1OC` [Tivozanib (AV-951)], the cell viability came to 0.811 ± 0.013. Molecule `C[C@@H](O)[C@H]1C(=O)N2C(C(=O)O)=C(S[C@@H]3CN[C@H](CNS(N)(=O)=O)C3)[C@H](C)[C@H]12` [Doripenem Hydrate] displayed a cell viability of 1.05 ± 0.059. The figure for `COc1cccc(-n2c(=O)[nH]c3cc(Cl)n(-c4ccc(-c5cccc(OC)c5O)cc4)c3c2=O)c1` is 0.952 ± 0.034; for `CN(CC(=O)N(Cc1ccc(C2CCCCC2)cc1)c1ccc(C(=O)O)cc1)S(=O)(=O)c1c(F)c(F)c(F)c(F)c1F` it is 0.9 ± 0.12. The figure for `OC(CNCC(O)C1CCc2cc(F)ccc2O1)C1CCc2cc(F)ccc2O1` (stereo not given) [Nebivolol] is 1.04 ± 0.026. For `O=C(CCc1ccc(O)cc1)c1c(O)cc(O)cc1O` [Phloretin] the value was 1.1 ± 0.036; for `CC[C@H](C)[C@H](N)C1=N[C@H](C(=O)N[C@@H](CC(C)C)C(=O)N[C@H](CCC(=O)O)C(=O)N[C@H](C(=O)N[C@H]2CCCCNC(=O)[C@H](CC(N)=O)NC(=O)[C@@H](CC(=O)O)NC(=O)[C@H](Cc3cnc[nH]3)NC(=O)[C@@H](Cc3ccccc3)NC(=O)[C@H]([C@@H](C)CC)NC(=O)[C@@H](CCCN)NC2=O)[C@@H](C)CC)CS1` [Bacitracin], 1.02 ± 0.016; for `CC(S)C(=O)NCC(=O)O` (stereo not given) [Tiopronin], 1.04 ± 0.026. Consider `CNCc1ccc(-c2cc(-c3nc(-c4ccc(S(=O)(=O)C(C)C)cc4)cnc3N)on2)cc1`, for which the cell viability turned out to be 0.883 ± 0.08. The figure for `CN1CCN(CCCN2c3ccccc3Sc3ccc(C(F)(F)F)cc32)CC1` [Trifluoperazine 2HCl] is 0.96 ± 0.033; for `O=C(NCc1ccccc1)c1csc(Nc2ccncn2)n1` [Thiazovivin] it is 0.99 ± 0.013.

The molecule `CNC[C@H](O)c1ccc(O)c(O)c1` [Epinephrine HCl] displayed a cell viability of 0.939 ± 0.033. For `CNC[C@H](O)c1ccc(O)c(O)c1` [Epinephrine Bitartrate] the value was 1.02 ± 0.033. For `CNC(=O)c1cc(Oc2ccc(NC(=O)Nc3ccc(Cl)c(C(F)(F)F)c3)c(F)c2)ccn1` [Regorafenib (BAY 73-4506)] the value was 0.941 ± 0.022; for `CC(C)(C)NCC(O)COc1cccc2c1CCC(=O)N2` (stereo not given) [Carteolol HCl], 1 ± 0.051; for `CN(C)CC(=O)Nc1ccc2[nH]c(=O)c3ccccc3c2c1`, 1.04 ± 0.028.

Take `O=C(O)c1cc(/N=N/c2ccc(O)c(C(=O)O)c2)ccc1O` [Olsalazine Sodium]: the cell viability worked out at 1.05 ± 0.015. As for `O=C(Nc1ccccc1-c1cn2c(CN3CCNCC3)csc2n1)c1cnc2ccccc2n1`, the cell viability was 0.808 ± 0.0086. For the molecule `O=C(C1CCCCC1)N1CC(=O)N2CCc3ccccc3C2C1` (stereo not given) [Praziquantel], the cell viability amounted to 1.03 ± 0.021. In turn, `C[C@@H]1CCO[C@H]2Cn3cc(C(=O)NCc4ccc(F)cc4F)c(=O)c(O)c3C(=O)N12` returned a cell viability of 1.09 ± 0.047.
